From the supplement of paper PMC11383711
This is one part of the list. Binding of human antibodies (heavy:light variable regions, tested as scFv in one mRNA-display pool) to influenza hemagglutinin, with or without the stem antibody CR9114 bound first. Score = (mean enrichment − median) / interquartile range of that screen; higher = more enriched, 0 = typical non-binder. Active = above the paper's cut-off per screen: stems 28; unblocked H1 Solomon Islands 5, H1 Michigan 3, H3 5, H5 19, H7 2.85, both B 5; blocked 9, 7, H5 10, H7 10, B Phuket 10, B Lee 11.5. Scores are scaled within each screen and are no affinities; replicates correlate at about 0.6 to 0.9, and antibodies rare in the pool are noisier.

B1: W85-3C05 (protein)
chain 1: EVQLVESGGGLVQPGGSLRLSCAASGFTVSSNYLSWVRQAPGKGLEWVSVIYGGGNTYYADSVKGRFTISRHNSKNTLYLQMNNLRAEDTAVYYCASHVLRFLEEGFDMWGQGTMVTVSS
chain 2: DIQMTQSPSSLSASVGDRVTITCRASQSISSYLNWYQQEPGKVPKLLIYSASSLHSGVPSRFSGSGSGTDFTLTISSLQPEDFATYYCQQTYSTSLTLGGGTKVEIK
B2: 029-09-3A02 (protein)
chain 1: VQLVQSGAEVKKPGASVKVSCKASGYIFTGYYMEWVRQAPGQGLEWMGWINPNTGVTKYAQKFQGRVTMTRDTSLSTAYMELINLRSDDTAIYYCAKDRAWLVYDDGSDVWGQGTMVTVSS
chain 2: SYELTQPPSVSVSPGQTAIITCSGDILGDTYACWYQQKPGQSPVLVIYHDFKRPSGIPERFSGSNSGKTATLTITGTQAMDEADYFCQTWDGGALFGGGTKLTVL
B3: K77-1D04 (protein)
chain 1: EVQLVESGGGVVQPGGSLRLSCGASGFTFSDYGMHWVRQAPGKGLEWVTYIRYDGSNEFYADSVKGRFTVSRDNSKNTLYLEMHSLRPEDTAVYFCANSALGYCSGENCPKFDFWGQGTLVTVSS
chain 2: QSALTQPASVSGSPGQSITISCTGTSFDVGGYNYVSWYQQHPGKAPKLIIYDVSERPSGISNRFSASKSGITASLTISGLQAEDEADYYCSSYTSSGTHWLFGGGTKLTVL
B4: 16.ND.92 (protein)
chain 1: EVQLVESGGGLVQPGGSLRLSCEASGFTLSSYWMHWVRQDPGKGLVWVAVINSDGSSTDYADFVKGRFTISRDNAKNTVYLQMNSLRAEDTAVYYCARAPQGTVFGVVIIGADGFDIWGQGTMVTVSS
chain 2: DIQMTHIPVSLSASVGDRVTITCRASQSISSWLAWYQQKPGKAPKLLIYKASTLESGVPSRFSGSGSGTDFTLTINSLQPDDFATYYCQHYNTYSRAWTFGQGTKVEVK
B5: 01.d.04 (protein)
chain 1: EVQLVESGGGVVQPGGSLRLSCAASGFTFSDYGIHWVRQAPAKGLEWVTFIRHDGNSEYFVDSVKGRFTVSRDNSKNTVYLQVNRLRPDDTAIYYCAKDAVWSGYYPTHSYFEYWGQGTLVPVSS
chain 2: DIQMTQVPVSLSASVGDRVTITCRASQGISNYLNWYQQKPGKAPKLLIYAISNLFSGVPSRFSGSESGTDFTLTISSLQPEDFATYYCQQTYTTPQTFGQGTKVEIK
B6: C1-2B06 (protein)
chain 1: VQLQESGPGLVKPSETLSLTCSVSGDSISETIYYWGWIRQSQGKGLEWIGNVYYDASTYYNPSLKSRVTMSIDTSKNQFSLKVSSVTAADTAVYYCARVPDGYKYYYGMDVWGQGTTVTVSS
chain 2: EIVMTQSPATLSVSPGERVTLSCRASQGVSSKLAWYQQKRGQAPRLLIYGASTRATGIPARFSGSGSGTEFTLTISSLQSEDFAIYYCQQYYNWTPITFGQGTRLEIK

Each binder was assayed against Influenza A H1N1 A/Michigan/45/2015 hemagglutinin ectodomain (assay: mRNA display binding score; higher = more enriched on the antigen). Conditions: antigen blocked with: 2 µM CR9114 IgG.
Description: (§1)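 A pool of natively paired antibodies, displayed as scFv on mRNA, was selected once on antigen-coated beads and sequenced before and after; two replicates.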
B1 was tested, and the “mRNA display binding score” value was inactive: 0.526.
In the case of B2, the “mRNA display binding score” value is reported as active: 38.9.
In the case of B3, the “mRNA display binding score” value is reported as inactive: -0.48.
In the case of B4, the “mRNA display binding score” value is reported as inactive: -0.415.
In the case of B5, the “mRNA display binding score” value is reported as inactive: 0.938.
For B6, the “mRNA display binding score” value was inactive: -0.2.

Same assay, conditions: antigen blocked with: nothing
For B1, the “mRNA display binding score” value was inactive: -0.653.
With B2 the “mRNA display binding score” value was inactive: 1.21.
B3 was tested, and the “mRNA display binding score” value was inactive: -0.798.
For B4, the “mRNA display binding score” value was inactive: -0.0357.
B5 was tested, and the “mRNA display binding score” value was active: 3.14.
With B6 the “mRNA display binding score” value was inactive: 0.223.

What follows are binders tested against Influenza A H1N1 A/Solomon Islands/3/2006 hemagglutinin ectodomain in the same assay as above. Conditions: antigen blocked with: 2 µM CR9114 IgG.
Description: as §1
In the case of B1, the “mRNA display binding score” value is reported as inactive: -0.487.
B2 was tested, and the “mRNA display binding score” value was inactive: 0.412.
B3 was tested, and the “mRNA display binding score” value was inactive: -0.511.
With B4 the “mRNA display binding score” value was inactive: -0.122.
In the case of B5, the “mRNA display binding score” value is reported as inactive: 1.36.
With B6 the “mRNA display binding score” value was inactive: -0.0883.

Same assay, conditions: antigen blocked with: nothing
In the case of B1, the “mRNA display binding score” value is reported as inactive: -0.47.
With B2 the “mRNA display binding score” value was inactive: -0.157.
B3 was tested, and the “mRNA display binding score” value was inactive: -0.485.
In the case of B4, the “mRNA display binding score” value is reported as inactive: 3.26.
B5 was tested, and the “mRNA display binding score” value was inactive: 1.22.
With B6 the “mRNA display binding score” value was inactive: -0.186.

The binders below were run against Influenza A H3N2 A/Singapore/INFIMH-16-0019/2016 hemagglutinin ectodomain in the same assay as above. Conditions: antigen blocked with: nothing.
Description: as §1
With B1 the “mRNA display binding score” value was inactive: -0.556.
In the case of B2, the “mRNA display binding score” value is reported as inactive: -0.065.
For B3, the “mRNA display binding score” value was inactive: -0.508.
In the case of B4, the “mRNA display binding score” value is reported as inactive: -0.0241.
With B5 the “mRNA display binding score” value was inactive: 1.55.
B6 was tested, and the “mRNA display binding score” value was inactive: 1.06.

The binders below were run against Influenza A H5N1 A/Qinghai/1A/2005 hemagglutinin ectodomain in the same assay as above. Conditions: antigen blocked with: 2 µM CR9114 IgG.
Description: as §1
With B1 the “mRNA display binding score” value was inactive: -0.516.
With B2 the “mRNA display binding score” value was inactive: -0.184.
For B3, the “mRNA display binding score” value was inactive: -0.521.
In the case of B4, the “mRNA display binding score” value is reported as inactive: -0.309.
With B5 the “mRNA display binding score” value was inactive: 1.59.
For B6, the “mRNA display binding score” value was inactive: 0.179.

Same assay, conditions: antigen blocked with: nothing
B1 was tested, and the “mRNA display binding score” value was inactive: -0.541.
In the case of B2, the “mRNA display binding score” value is reported as inactive: -0.0548.
With B3 the “mRNA display binding score” value was inactive: -0.597.
B4 was tested, and the “mRNA display binding score” value was inactive: 0.402.
B5 was tested, and the “mRNA display binding score” value was inactive: 0.736.
With B6 the “mRNA display binding score” value was inactive: 1.18.

What follows are binders tested against Influenza A H7N9 A/Shanghai/2/2013 hemagglutinin ectodomain in the same assay as above. Conditions: antigen blocked with: 2 µM CR9114 IgG.
Description: as §1
B1 was tested, and the “mRNA display binding score” value was inactive: -1.48.
With B2 the “mRNA display binding score” value was inactive: -0.555.
With B3 the “mRNA display binding score” value was inactive: 0.495.
With B4 the “mRNA display binding score” value was inactive: -0.666.
In the case of B5, the “mRNA display binding score” value is reported as inactive: 1.13.
In the case of B6, the “mRNA display binding score” value is reported as inactive: 1.63.

Same assay, conditions: antigen blocked with: nothing
B1 was tested, and the “mRNA display binding score” value was inactive: -0.777.
With B2 the “mRNA display binding score” value was inactive: -0.245.
For B3, the “mRNA display binding score” value was inactive: -0.787.
B4 was tested, and the “mRNA display binding score” value was inactive: -0.477.
For B5, the “mRNA display binding score” value was active: 3.18.
For B6, the “mRNA display binding score” value was inactive: 0.673.

What follows are binders tested against Influenza B/Lee/1940 hemagglutinin ectodomain in the same assay as above. Conditions: antigen blocked with: 2 µM CR9114 IgG.
Description: as §1
In the case of B1, the “mRNA display binding score” value is reported as inactive: 0.379.
With B2 the “mRNA display binding score” value was inactive: -0.516.
With B3 the “mRNA display binding score” value was inactive: -0.179.
B4 was tested, and the “mRNA display binding score” value was inactive: -0.143.
With B5 the “mRNA display binding score” value was inactive: -0.193.
In the case of B6, the “mRNA display binding score” value is reported as inactive: 0.0764.

Same assay, conditions: antigen blocked with: nothing
For B1, the “mRNA display binding score” value was inactive: -0.104.
In the case of B2, the “mRNA display binding score” value is reported as inactive: -0.00408.
With B3 the “mRNA display binding score” value was inactive: -0.213.
For B4, the “mRNA display binding score” value was inactive: -0.324.
For B5, the “mRNA display binding score” value was inactive: -0.191.
In the case of B6, the “mRNA display binding score” value is reported as inactive: -0.145.

What follows are binders tested against Influenza B/Phuket/3073/2013 hemagglutinin ectodomain in the same assay as above. Conditions: antigen blocked with: 2 µM CR9114 IgG.
Description: as §1
For B1, the “mRNA display binding score” value was inactive: -0.515.
In the case of B2, the “mRNA display binding score” value is reported as inactive: -0.333.
For B3, the “mRNA display binding score” value was inactive: 9.1.
B4 was tested, and the “mRNA display binding score” value was inactive: -0.285.
With B5 the “mRNA display binding score” value was inactive: 0.52.
In the case of B6, the “mRNA display binding score” value is reported as active: 24.6.

Same assay, conditions: antigen blocked with: nothing
With B1 the “mRNA display binding score” value was inactive: -0.416.
For B2, the “mRNA display binding score” value was inactive: -0.348.
B3 was tested, and the “mRNA display binding score” value was inactive: 1.93.
B4 was tested, and the “mRNA display binding score” value was inactive: -0.397.
For B5, the “mRNA display binding score” value was inactive: 0.732.
In the case of B6, the “mRNA display binding score” value is reported as active: 36.3.
